Sequences with one replicate were seen in a single cluster, so their values are uncertain.
system: ATP; assay: switch fluorescence ratio, 500 uM ATP over buffer (Cy3 cluster intensity, sum of 5 cycles each) (fold (ratio)); higher = stronger signal-on switching upon ATP binding; sequences stand for … in TCGTCGGCAGCGTCAGATGTGTATAAGAGACAGTTTTTTTTTTTTTTTTTTTTTTTTT…TC; settings: aptamer strand: ATP DNA aptamer (quencher-CACCTGGGGGAGTATTGCGGAGGAAGG + anchor), 100 nM annealed; ATP concentration: 500 uM; one replicate
Outline: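 Clusters carrying Cy3-labelled switching strands on a modified Illumina MiSeq flow-cell were annealed to 100 nM quencher-labelled ATP aptamer and imaged in selection buffer. They were imaged again after 15 min with 500 uM ATP at 22 °C, over five buffer/ATP cycles with NaOH stripping and re-annealing in between. For each cluster, the fluorescence ratio is the summed Cy3 intensity of the target cycles divided by that of the buffer cycles, averaged per switch-domain sequence. Clusters outside 100-1000 RFU were left out.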
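Also: ATP exposure 15 min at 22 °C before imaging.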

Sequence	switch fluorescence ratio
ACTGGTTGGC	0.971
ACTGTACATA	1.45
ACTGTAGATT	1.15
ACTGTCACCA	1.42
ACTGTCCTAA	1.03
ACTGTCGCCC	1.01
ACTGTCTGCA	1.11
ACTGTGGTAG	0.991
ACTGTTTACC	1.07
ACTTAAAGTT	1.01
ACTTAAGCCT	1.18
ACTTAAGTAT	1.02
ACTTACGAA	1.33
ACTTAGATCA	1.09
ACTTAGATGC	1.03
ACTTAGATGT	1.05
ACTTAGGATG	1.06
ACTTAGTCTT	1.06
ACTTAGTGGA	1.01
ACTTAGTTCG	1.05
ACTTATGCTG	0.928
ACTTATGTAT	1.04
ACTTATTATC	1.02
ACTTATTCAA	1.02
ACTTCAACGG	1.23
ACTTCACGTT	1.23

Sequence	switch fluorescence ratio
ACTTCATCTG	1.57
ACTTCATGAG	1.05
ACTTCGATTT	1.17
ACTTCGGCAT	1.54
ACTTCGGTCT	1.03
ACTTCTAGCT	0.999
ACTTCTCGGA	1.01
ACTTCTGTGT	1.03
ACTTCTTTAT	0.994
ACTTGAACA	1.02
ACTTGCCTGG	1.1
ACTTGCGCTT	1
ACTTGCGTCC	1.08
ACTTGGAATG	1.01
ACTTGGAGAA	1.05
ACTTGGATGT	1.03
ACTTGTCTAT	1
ACTTGTTAGC	0.996
ACTTGTTTC	0.997
ACTTTAATAC	1.65
ACTTTAATT	1.03
ACTTTCACCC	1.3
ACTTTCTCGA	0.983
ACTTTTGGGC	0.941
ACTTTTTCAG	1
AGAAAAGAGG	0.978

Sequence	switch fluorescence ratio
AGAAAGATT	0.998
AGAAAGGCTG	1
AGAAAGTATG	0.998
AGAAATACTG	1.23
AGAAATAGGC	1.05
AGAAATGAAC	0.974
AGAAATGGCC	1.02
AGAACCCGTT	1.01
AGAACCGCAG	1.34
AGAACCTTGA	1.08
AGAACGGATG	1.03
AGAACTGATA	1.04
AGAACTGCGG	1.03
AGAAGAACGC	1.06
AGAAGAAGAG	0.983
AGAAGAGGTT	0.988
AGAAGCACAA	1.18
AGAAGCACCT	1.06
AGAAGCGAAG	1.01
AGAAGCTGGT	1.07
AGAAGCTTAA	1.02
AGAAGGGATC	1.02
AGAAGGGTA	1.01
AGAAGTAAGC	1.04
AGAAGTACTG	1.07
AGAAGTCTTT	0.935

Sequence	switch fluorescence ratio
AGAAGTGATG	1.03
AGAAGTGTGC	0.973
AGAATACATA	1.05
AGAATACGA	1.05
AGAATCATTC	0.977
AGAATGAAAG	0.97
AGAATGC	1.03
AGAATGCGAG	1.02
AGAATGCTGG	1.03
AGAATGGGG	1.07
AGAATGGGGT	1
AGAATGGTTC	1.01
AGACAAAATT	0.965
AGACAACATT	1.02
AGACAATTTA	1.03
AGACAGTTT	1
AGACATTTAT	1
AGACCAAAG	1
AGACCAGGGT	1.03
AGACCCACCC	1.54
AGACCCCGTA	1.02
AGACCGTCCT	1.15
AGACGAAGAG	1.07
